Test results published in US20090306091A1, “ANTIMALARIAL THERAPY USING A COMBINATION OF SYNTHETIC ARTEMISININ DERIVATIVE AND BISQUINOLINE DERIVATIVE” (priority 2006, published 2009).

Test system: female rats
Assay: Embryo-fetal assessment study in female rats, oral administration (ICH guideline, GLP)
Type: in vivo, rat
Settings: female rats
Source text: Further, abnormal findings viz., interventricular septal defect (5 fetuses), aortic arch dilated (6 fetuses), ductus arteriosus and/or pulmonary trunk narrowed (5 fetuses), spleen reduced in size (4 fetuses) were noticed.

## CC(C)(N)CNC(=O)CC1CCC2(CC1)OOC1(O2)C2CC3CC(C2)CC1C3 (centres unmarked)
90 mg/kg/day
  aortic arch dilated: 6 fetuses
  ductus arteriosus and/or pulmonary trunk narrowed: 5 fetuses
  interventricular septal defect: 5 fetuses
  post-implantation loss: 10/22
  reduction in mean food consumption compared with the vehicle control: −10.7%
  spleen reduced in size: 4 fetuses
90 mg/kg/day (4.8 g in the vehicle control)
  fetal weight: 4.1 g
90 mg/kg/day (13.6 in the vehicle control)
  litter size: 8.2 fetuses per dam
90 mg/kg/day (74 g in the vehicle control)
  body weight gain: 57 g
10 and 30 mg/kg/day
  changes in food consumption, mean body weight, reproductive parameters and fetus weight: no changes
oral, 10, 30 and 90 mg/kg/day
  test item-related clinical signs, signs of discomfort and gross changes: no test item-related clinical signs, signs of discomfort and gross changes
